Experimental data reported in the supplement of paper PMC8512760.
Some of the results follow. Single values are uncertain, as repeats are few or missing.

Tests used:
Test in all cases: cell viability relative to vehicle (% of vehicle); basal-like triple-negative breast cancer lines; higher = less cytotoxic
Details in all cases: 10 µM; 72 h
HCC-1143 = test system: HCC-1143
HCC-1187 = test system: HCC-1187
MDA-468 = test system: MDA-468
SUM-149 = test system: SUM-149
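Further: stably firefly luciferase-GFP labeled cells in 96-well plates, viability read as luciferase photon flux after d-luciferin addition, treated wells normalized to vehicle wells, single-dose high-throughput screen.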

| SMILES | cell viability (HCC-1143) | cell viability (HCC-1187) | cell viability (MDA-468) | cell viability (SUM-149) |
| --- | --- | --- | --- | --- |
| Oc1ccc(OC2CCCCO2)cc1 (configuration not stated) [Deoxyarbutin] | 76.6 | 75.2 | 117 | 134 |
| O=C(O)C1=CC(=NNc2ccc(S(=O)(=O)Nc3ccccn3)cc2)C=CC1=O [Sulfasalazine] | 110 | 76.3 | 101 | 145 |
| CC1C(=O)OC2CC34C5CC(C(C)(C)C)C36C(OC(=O)C6O)OC4(C(=O)O5)C21O (configuration not stated) [Ginkgolide A] | 99.8 | 92.7 | 124 | 113 |
| COc1cc2ncnc(Nc3ccc(F)c(Cl)c3)c2cc1NC(=O)C=CCN1CCCCC1 | 38.1 | 28.3 | 31.7 | 34.8 |
| COc1c2occc2cc2ccc(=O)oc12 [8-Methoxypsoralen] | 78.7 | 83.5 | 124 | 106 |
| COc1cc(C(=O)O)ccc1NC(=O)C1NC(CC(C)(C)C)C(C#N)(c2ccc(Cl)cc2F)C1c1cccc(Cl)c1F (configuration not stated) | 117 | 76.6 | 95.4 | 109 |
| CN1CC(=O)N2[C@H](c3ccc4c(c3)OCO4)c3[nH]c4ccccc4c3C[C@@H]2C1=O [Tadalafil] | 87.9 | 93.3 | 92.7 | 120 |
| N[C@@H](Cc1cc(I)c(Oc2cc(I)c(O)c(I)c2)c(I)c1)C(=O)O [L-Thyroxine] | 76.8 | 110 | 90.6 | 86.5 |
